The text below walks through data of the domain aggregation screens of Martell et al. (2025).

This data set can be described thus: soluble fraction after stress (log2 fold change); higher = more stays soluble; pooled small domains, quantitative proteomics. Conditions: stress: 50 degC. The method in brief:
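The measure of aggregation propensity here is the base-two logarithm of the fold change in the soluble amount of each protein after stress. A higher value means more of that protein stays in solution. Stress was applied at 50°C to pooled libraries of small protein domains, read out by high-throughput quantitative proteomics.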
Regarding “HMNNAVITINNLVKRFPVGGDFFTALKDIDLTLNKGEFTGLIGPSGSGKTTLLNIIGGLDSPTEGQVSV”, the “soluble fraction (log2)” value is 0.0153.

“HMGPSEPVIVKWFNRLKGYGFVTRPDGEADIFVHMETVRRAGLAELMPGQTLHARITEGQKGPLVVALGE”: the “soluble fraction (log2)” value is -1.05.

For “HMDSLPEPIKRLLNVLGDKKLSAAEIMEQLGLSHRATFRKNYLNPALELGLIEMTIPDKPNSRNQKYIKKQ”, the “soluble fraction (log2)” value is -0.308.

For the sequence “HMSDMGRDEAYEILGLARDSSEAEIREAHKKLMINNHPDHGGSAYLATKINRARDVLLDELNFF”, the “soluble fraction (log2)” value is 9.92e-05.

With “HMLSQEALEFVRSLVDRPMVIFTTAYSEYAVEGFKLDAVDYLLKPFSFADFSRSAGKANSLYELRHN”, the “soluble fraction (log2)” value was -0.596.

For the sequence “HMQFGLDQVAHQRAHTLSGGMQRRLSIAMGLITNPKILFLDEPTVGLDVLARHELWHTLTALK”, the “soluble fraction (log2)” value worked out at 0.0434.

Turning to “HMKMVEGKVKWFNDSKGFGFIEQDGGKDVFVHHSAIQAEGFKSLAEGERVSFDVVAGPKGPAAANVRK”, the “soluble fraction (log2)” value is -0.223.

Regarding “HMSDYYQDLGVERSATPEEIKRAYRRLARQLHPDVNPGAEAEEQFKTVSRAYEVLSDADKRRNYDLGVDP”, the “soluble fraction (log2)” value amounted to 0.163.

With “HMETLAWADTAQNGLDRLVAAQPILVRISAAKRLRDAAEQIARSAGVATVEIEHVQHASDSLQFGDA”, the “soluble fraction (log2)” value was -0.12.

As for “HMVSSEQHYTVLGITKQATDTEVKKAYRKMAVKYHPDKLQGVSEDIKKLSEEKFLKVKEAYEQIMKGR”, the “soluble fraction (log2)” value was determined as 0.136.
